Results reported in the supplement of paper PMC8728848.
The other results are listed elsewhere or left out.

Columns and labels:
Assay in all cases: glycan array binding signal (z-score within array); higher = stronger binding
Conditions in all cases: glycan notation: IUPAC condensed, linker removed
[1] = molecular target: Gal(b1-4)GlcNAc(b1-2)[Gal(b1-4)GlcNAc(b1-6)]Man(a1-6)[Gal(b1-4)GlcNAc(b1-2)Man(a1-3)]Man(b1-4)GlcNAc(b1-4)[Fuc(a1-6)]GlcNAc
Procedure, shortened: (§1)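 Glycan array binding is given as a within-array Z-score, which can be read as non-binding when negative. The arrays, 3228 of them, came from the Consortium for Functional Glycomics database and were retained only where the protein sequence was available. Z-scores were averaged across arrays of the same protein sequence at different concentrations or buffers and across linkers.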

[2] = molecular target: Gal(b1-4)GlcNAc(b1-2)[Gal(b1-4)GlcNAc(b1-6)]Man(a1-6)[GlcNAc(b1-4)][Gal(b1-4)GlcNAc(b1-2)Man(a1-3)]Man(b1-4)GlcNAc(b1-4)GlcNAc
Procedure, shortened: as §1

[3] = molecular target: Gal(b1-4)GlcNAc(b1-2)[Gal(b1-4)GlcNAc(b1-6)]Man(a1-6)[GlcNAc(b1-4)][Gal(b1-4)GlcNAc(b1-2)[Gal(b1-4)GlcNAc(b1-4)]Man(a1-3)]Man(b1-4)GlcNAc(b1-4)[Fuc(a1-6)]GlcNAc
Procedure, shortened: as §1

[4] = molecular target: Gal(b1-4)GlcNAc(b1-3)Gal(b1-3)GalNAc
Procedure, shortened: as §1

[5] = molecular target: Gal(b1-4)GlcNAc(b1-3)Gal(b1-3)GlcNAc
Procedure, shortened: as §1

[6] = molecular target: Gal(b1-4)GlcNAc(b1-3)Gal(b1-4)Glc
Procedure, shortened: as §1

[7] = molecular target: Gal(b1-4)GlcNAc(b1-3)Gal(b1-4)GlcNAc
Procedure, shortened: as §1

[8] = molecular target: Gal(b1-4)GlcNAc(b1-3)Gal(b1-4)GlcNAc(b1-2)Man(a1-3)[Gal(b1-4)GlcNAc(b1-3)Gal(b1-4)GlcNAc(b1-2)Man(a1-6)]Man(b1-4)GlcNAc(b1-4)GlcNAc
Procedure, shortened: as §1

[9] = molecular target: Gal(b1-4)GlcNAc(b1-3)Gal(b1-4)GlcNAc(b1-2)Man(a1-3)[Gal(b1-4)GlcNAc(b1-3)Gal(b1-4)GlcNAc(b1-2)Man(a1-6)]Man(b1-4)GlcNAc(b1-4)[Fuc(a1-6)]GlcNAc
Procedure, shortened: as §1

[10] = molecular target: Gal(b1-4)GlcNAc(b1-3)Gal(b1-4)GlcNAc(b1-2)[Gal(b1-4)GlcNAc(b1-3)Gal(b1-4)GlcNAc(b1-6)]Man(a1-6)[Gal(b1-4)GlcNAc(b1-3)Gal(b1-4)GlcNAc(b1-2)Man(a1-3)]Man(b1-4)GlcNAc(b1-4)GlcNAc
Procedure, shortened: as §1

[11] = molecular target: Gal(b1-4)GlcNAc(b1-3)Gal(b1-4)GlcNAc(b1-2)[Gal(b1-4)GlcNAc(b1-3)Gal(b1-4)GlcNAc(b1-6)]Man(a1-6)[Gal(b1-4)GlcNAc(b1-3)Gal(b1-4)GlcNAc(b1-2)Man(a1-3)]Man(b1-4)GlcNAc(b1-4)[Fuc(a1-6)]GlcNAc
Procedure, shortened: as §1

[12] = molecular target: Gal(b1-4)GlcNAc(b1-3)Gal(b1-4)GlcNAc(b1-3)Gal(b1-4)GlcNAc
Procedure, shortened: as §1

[13] = molecular target: Gal(b1-4)GlcNAc(b1-3)Gal(b1-4)GlcNAc(b1-3)Gal(b1-4)GlcNAc(b1-2)Man(a1-3)[Gal(b1-4)GlcNAc(b1-3)Gal(b1-4)GlcNAc(b1-3)Gal(b1-4)GlcNAc(b1-2)Man(a1-6)]Man(b1-4)GlcNAc(b1-4)GlcNAc
Procedure, shortened: as §1

[14] = molecular target: Gal(b1-4)GlcNAc(b1-3)Gal(b1-4)GlcNAc(b1-3)Gal(b1-4)GlcNAc(b1-2)Man(a1-3)[Gal(b1-4)GlcNAc(b1-3)Gal(b1-4)GlcNAc(b1-3)Gal(b1-4)GlcNAc(b1-2)Man(a1-6)]Man(b1-4)GlcNAc(b1-4)[Fuc(a1-6)]GlcNAc
Procedure, shortened: as §1

[15] = molecular target: Gal(b1-4)GlcNAc(b1-3)Gal(b1-4)GlcNAc(b1-3)Gal(b1-4)GlcNAc(b1-2)[Gal(b1-4)GlcNAc(b1-3)Gal(b1-4)GlcNAc(b1-3)Gal(b1-4)GlcNAc(b1-6)]Man(a1-6)[Gal(b1-4)GlcNAc(b1-3)Gal(b1-4)GlcNAc(b1-3)Gal(b1-4)GlcNAc(b1-2)Man(a1-3)]Man(b1-4)GlcNAc(b1-4)[Fuc(a1-6)]GlcNAc
Procedure, shortened: as §1

[16] = molecular target: Gal(b1-4)GlcNAc(b1-3)Gal(b1-4)GlcNAc(b1-3)Gal(b1-4)GlcNAc(b1-3)Gal(b1-4)GlcNAc(b1-2)Man(a1-3)[Gal(b1-4)GlcNAc(b1-3)Gal(b1-4)GlcNAc(b1-3)Gal(b1-4)GlcNAc(b1-3)Gal(b1-4)GlcNAc(b1-2)Man(a1-6)]Man(b1-4)GlcNAc(b1-4)GlcNAc
Procedure, shortened: as §1

[17] = molecular target: Gal(b1-4)GlcNAc(b1-3)Gal(b1-4)GlcNAc(b1-3)Gal(b1-4)GlcNAc(b1-3)Gal(b1-4)GlcNAc(b1-2)Man(a1-3)[Gal(b1-4)GlcNAc(b1-3)Gal(b1-4)GlcNAc(b1-3)Gal(b1-4)GlcNAc(b1-3)Gal(b1-4)GlcNAc(b1-2)Man(a1-6)]Man(b1-4)GlcNAc(b1-4)[Fuc(a1-6)]GlcNAc
Procedure, shortened: as §1

[18] = molecular target: Gal(b1-4)GlcNAc(b1-3)Gal(b1-4)GlcNAc(b1-3)Gal(b1-4)GlcNAc(b1-3)Gal(b1-4)GlcNAc(b1-2)[Gal(b1-4)GlcNAc(b1-3)Gal(b1-4)GlcNAc(b1-3)Gal(b1-4)GlcNAc(b1-3)Gal(b1-4)GlcNAc(b1-6)]Man(a1-6)[Gal(b1-4)GlcNAc(b1-3)Gal(b1-4)GlcNAc(b1-3)Gal(b1-4)GlcNAc(b1-3)Gal(b1-4)GlcNAc(b1-2)Man(a1-3)]Man(b1-4)GlcNAc(b1-4)[Fuc(a1-6)]GlcNAc
Procedure, shortened: as §1

[19] = molecular target: Gal(b1-4)GlcNAc(b1-3)Gal(b1-4)GlcNAc(b1-3)Gal(b1-4)GlcNAc(b1-3)Gal(b1-4)GlcNAc(b1-3)Gal(b1-4)GlcNAc(b1-2)Man(a1-3)[Gal(b1-4)GlcNAc(b1-3)Gal(b1-4)GlcNAc(b1-3)Gal(b1-4)GlcNAc(b1-3)Gal(b1-4)GlcNAc(b1-3)Gal(b1-4)GlcNAc(b1-2)Man(a1-6)]Man(b1-4)GlcNAc(b1-4)GlcNAc
Procedure, shortened: as §1

[20] = molecular target: Gal(b1-4)GlcNAc(b1-3)Gal(b1-4)GlcNAc(b1-3)Gal(b1-4)GlcNAc(b1-3)Gal(b1-4)GlcNAc(b1-3)Gal(b1-4)GlcNAc(b1-2)Man(a1-3)[Gal(b1-4)GlcNAc(b1-3)Gal(b1-4)GlcNAc(b1-3)Gal(b1-4)GlcNAc(b1-3)Gal(b1-4)GlcNAc(b1-3)Gal(b1-4)GlcNAc(b1-2)Man(a1-6)]Man(b1-4)GlcNAc(b1-4)[Fuc(a1-6)]GlcNAc
Procedure, shortened: as §1

[21] = molecular target: Gal(b1-4)GlcNAc(b1-3)Gal(b1-4)GlcNAc(b1-3)Gal(b1-4)GlcNAc(b1-3)Gal(b1-4)GlcNAc(b1-3)Gal(b1-4)GlcNAc(b1-2)[Gal(b1-4)GlcNAc(b1-3)Gal(b1-4)GlcNAc(b1-3)Gal(b1-4)GlcNAc(b1-3)Gal(b1-4)GlcNAc(b1-3)Gal(b1-4)GlcNAc(b1-6)]Man(a1-6)[Gal(b1-4)GlcNAc(b1-3)Gal(b1-4)GlcNAc(b1-3)Gal(b1-4)GlcNAc(b1-3)Gal(b1-4)GlcNAc(b1-3)Gal(b1-4)GlcNAc(b1-2)Man(a1-3)]Man(b1-4)GlcNAc(b1-4)[Fuc(a1-6)]GlcNAc
Procedure, shortened: as §1

[22] = molecular target: Gal(b1-4)GlcNAc(b1-3)Gal(b1-4)GlcNAc(b1-3)Gal(b1-4)GlcNAc(b1-3)Gal(b1-4)GlcNAc(b1-3)Gal(b1-4)GlcNAc(b1-3)Gal(b1-4)GlcNAc(b1-2)Man(a1-3)[Gal(b1-4)GlcNAc(b1-3)Gal(b1-4)GlcNAc(b1-3)Gal(b1-4)GlcNAc(b1-3)Gal(b1-4)GlcNAc(b1-3)Gal(b1-4)GlcNAc(b1-3)Gal(b1-4)GlcNAc(b1-2)Man(a1-6)]Man(b1-4)GlcNAc(b1-4)GlcNAc
Procedure, shortened: as §1

[23] = molecular target: Gal(b1-4)GlcNAc(b1-3)Gal(b1-4)GlcNAc(b1-3)GalNAc
Procedure, shortened: as §1

B1: SRA-1 (Homo sapiens), P21757 (protein)
chain: MEQWDHFHNQQEDTDSCSESVKFDARSMTALLPPNPKNSPSLQEKLKSFKAALIALYLLVFAVLIPLIGIVAAQLLKWETKNCSVSSTNANDITQSLTGKGNDSEEEMRFQEVFMEHMSNMEKRIQHILDMEANLMDTEHFQNFSMTTDQRFNDILLQLSTLFSSVQGHGNAIDEISKSLISLNTTLLDLQLNIENLNGKIQENTFKQQEEISKLEERVYNVSAEIMAMKEEQVHLEQEIKGEVKVLNNITNDLRLKDWEHSQTLRNITLIQGPPGPPGEKGDRGPTGESGPRGFPGPIGPPGLKGDRGAIGFPGSRGLPGYAGRPGNSGPKGQKGEKGSGNTLTPFTKVRLVGGSGPHEGRVEILHSGQWGTICDDRWEVRVGQVVCRSLGYPGVQAVHKAAHFGQGTGPIWLNEVFCFGRESSIEECKIRQWGTRACSHSEDAGVTCTL
glycan array binding signal (z-score) [1]: -0.466
glycan array binding signal (z-score) [2]: -0.722
glycan array binding signal (z-score) [3]: -0.205
glycan array binding signal (z-score) [4]: -0.604
glycan array binding signal (z-score) [5]: -0.508
glycan array binding signal (z-score) [6]: -0.167
glycan array binding signal (z-score) [7]: -0.211
glycan array binding signal (z-score) [8]: 0.208
glycan array binding signal (z-score) [9]: 0.066
glycan array binding signal (z-score) [10]: 0.192
glycan array binding signal (z-score) [11]: 0.305
glycan array binding signal (z-score) [12]: -0.32
glycan array binding signal (z-score) [13]: 0.251
glycan array binding signal (z-score) [14]: 0.074
glycan array binding signal (z-score) [15]: -0.041
glycan array binding signal (z-score) [16]: -0.051
glycan array binding signal (z-score) [17]: 0.096
glycan array binding signal (z-score) [18]: 0.488
glycan array binding signal (z-score) [19]: 0.434
glycan array binding signal (z-score) [20]: -0.337
glycan array binding signal (z-score) [21]: 0.801
glycan array binding signal (z-score) [22]: 0.603
glycan array binding signal (z-score) [23]: -0.228
